Assay results taken from PubChem BioAssay AID1508624 (National Center for Advancing Translational Sciences (NCATS), 2021).
In all, about 48,000 compounds went through this assay and about 120 (0.25%) were called active. Not shown: some 4% with an inconclusive outcome. Calls follow the shape of the dose curve; as a rule, active = well fitted activation curve with a large enough effect; inconclusive = small, poorly fitted or top-dose-only effect, or another doubt; inactive = no such curve, though single readings can be large or run the other way. This is one part of the list.

test: Primary qHTS for Identification of Small Molecule Activators of Huntingtin-Antisense Promoter Activity; details: HEK293 HTT-AS promoter firefly luciferase reporter, 24 h; series mostly up to 57.5 µM; activity change, positive = activation: at the top concentration; also: nearly all actives have a fitted effect of over 55% in size
Procedure, shortened: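 HEK293 Fluc reporter, 2,500 cells/well, 24 h pre-culture; cpds up to 57.5 uM final, 24 h 37 degrees C; Dual-Glo, 10 min RT; normalized vehicle = 0%, zero RLU = -100%.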

Activity change, positive = activation, inactive:
CCOc1ccc(C(=O)N2CCC(c3nc4ccccc4o3)CC2)cc1 -29%
CSc1cccc(NC(=O)CN2C(=O)COc3ccc(Cl)cc32)c1 -27.1%
CCOc1ccc(OCC)c(NC(=O)c2nnn(CC(=O)Nc3ccc(C)cc3C)c2N)c1 -2.89%
CC(C)=CCC1C(=O)N(c2ccccc2)N(c2ccccc2)C1=O -18%
Cc1cc2n(n1)C(c1cc(C(C)(C)C)c(O)cc1O)Nc1ccccc1-2 (stereo unspecified) 0.777%
COc1ccccc1CNC(=O)C(NS(=O)(=O)c1cccs1)C(C)C (stereo unspecified) -3.97%
COc1ccc(NC(=O)COc2ccc(-c3nn(C)c(=O)c4ccccc34)cc2)cc1 -29.1%
COc1ccc(-c2cc3ccc(O)c(CN4CCOCC4)c3oc2=O)cc1OC 3.74%
CCCCOc1ccc(C(=O)Nc2cccc(-c3nc4cccnc4s3)c2)cc1 5.49%
COc1ccccc1-c1nnc(SCC(=O)c2ccc(Cl)cc2)n1-c1ccccc1 -26.5%
CCCCc1ccc(NC(=O)c2cc3c(=O)n4ccccc4nc3s2)cc1 6.64%
CCOc1ccc(NC(=O)CSc2nc3c(oc4ccccc43)c(=O)n2-c2ccccc2C)cc1 -15.4%
CC(NC(=O)c1ccc2c(c1)CCN2S(=O)(=O)c1ccc(Cl)cc1)c1ccccc1 (stereo unspecified) -20.2%
CCn1ccc2cc(S(=O)(=O)N3CCCN(C(=O)Nc4cccc(Cl)c4)CC3)ccc21 -27.5%
COc1ccc(N(C)C(=O)c2cn(C3CCCCC3)c(=O)c3c2c2ccccc2n3C)cc1 -26.5%
COc1ccc(C2=NN(CC(=O)NCCc3ccc(OC)c(OC)c3)C(=O)CC2)cc1 -7.08%
CCOC(=O)C1CCN(C(=O)c2ccc(-n3ccc4ccccc43)s2)CC1 14.5%
COc1ccc(Cn2ccn(Cc3cccc(OC)c3)c(=O)c2=O)cc1 -14.9%
O=C1CC[C@H](C(=O)N2CCCCC2)N1 -1.28%
Cc1ccccc1C1CC(=O)Nc2ccc3ccccc3c21 (stereo unspecified) -30.4%
Cc1ccc(C(=O)c2cn(CC(=O)Nc3ccc(C)cc3Cl)c3nc(C)ccc3c2=O)cc1 -11.9%
Cc1cccc(NC(=O)N2CC(=O)Nc3sc4c(c3C2c2ccccc2)CCCC4)c1C (stereo unspecified) -35.8%
CCOc1cc(CNC(=O)c2ccc3c(c2)NC(=O)C2CCCCN32)cc(OCC)c1OCC (stereo unspecified) -10.3%
Cc1ccc(Cl)cc1N1CCN(C(=O)c2ccc3c(c2)N(Cc2ccc(F)cc2)CCS3)CC1 -19%
CCOc1ccccc1OCCCn1c(-c2ccc(Cl)cc2)nc2ccccc2c1=O -14.9%
Cc1cn2c(=O)cc(COC(=O)c3ccc(NC(=O)COc4ccccc4F)cc3)nc2s1 -7.16%
Cc1cc(C)cc(-n2c(-c3ccccc3)c(C)n3c4c(=O)n(C)c(=O)n(C)c4nc23)c1 -0.262%
CCCS(=O)(=O)N1CC(=O)N(c2ccc(Cl)cc2C)C(C)(C(=O)NC2CCCC2)C1 (stereo unspecified) -19.8%
COc1cc2nc(NC(=O)c3ccc(S(=O)(=O)N4CCOCC4)cc3)sc2cc1OC -21.1%
COc1ccc(NC(=O)CSC2=Nc3ccccc3C3=NC(CCC(=O)NC4CCCCC4)C(=O)N23)cc1 (stereo unspecified) -3.63%
CC(=O)c1cccc(NC(=O)C2CCN(S(=O)(=O)c3ccc4c(c3)oc(=O)n4C)CC2)c1 -14.4%
CCOC(=O)c1cccc(NC(=O)CCn2c(-c3ccc(F)cc3)cc(C(=O)OCC)c2C)c1 -29%
N[C@@H](CSCCCO)C(=O)O -0.0036% [at 25.1 µM, percent change from vehicle, -100% = no light]
O=C(CSCc1ccccc1Cl)N1CCN(c2ccc(Cl)cc2)CC1 -9.96%
COc1c(C)cccc1C(=O)Nc1cccc2ccc(C)nc12 -25.7%
COc1cc(C2CC(=O)Oc3c2c(=O)n(C)c2ccccc32)ccc1O (stereo unspecified) 0%
CCOC(=O)C1CCN(S(=O)(=O)c2ccc3c(c2)N(C)C(=O)CC(=O)N3C)CC1 1.09%
COc1ccc(C(=O)NC2(C(F)(F)F)C(=O)Nc3c2c(=O)[nH]c(=O)n3CCc2ccc(OC)c(OC)c2)cc1 (stereo unspecified) -6.67%
COc1ccc(-c2cc(C(C)=O)c(C)n2CCC(=O)Nc2cc(Cl)ccc2C)cc1 -36.9%
CC(=O)SCC(Cc1ccccc1)C(=O)NCC(=O)OCc1ccccc1 (stereo unspecified) -36.5%
O=C(COc1ccccc1)Nc1ccc2nc(SCCOc3ccccc3)sc2c1 -0.575%
CCOC(=O)c1c(C)[nH]c(C)c1S(=O)(=O)N(C)CC(=O)Nc1ccc(C)cc1C -0.659%
Cc1cc(C)c2oc(-c3cccc(NC(=O)COc4ccc([N+](=O)[O-])cc4)c3)nc2c1 -28.1%
Cc1ccc(NC(=O)Cn2c(=O)n(CC3CCCO3)c(=O)c3ccccc32)cc1 (stereo unspecified) -20.6%
Cc1ccc(Cl)cc1N1CCN(C(=O)c2ccc(CS(=O)(=O)c3ccccc3C)o2)CC1 -40.1%
Cc1cc(=O)n(CC(=O)N2CCN(c3ccccc3F)CC2)c2c1c(C)nn2C -54.2%
CCc1ccccc1NC(=O)c1cnc(N2CCCCC2)c2ccccc12 -23.2%
COc1cc(C(=O)NCC(c2cccs2)S(=O)(=O)c2cccs2)cc(OC)c1OC (stereo unspecified) -12.6%
CCOc1ccc(CCNC(=O)Cn2nc(CC)n3c(cc4ccccc43)c2=O)cc1 -1.74%
Cc1cc(Nc2cc(N3CCN(C)CC3)nc(C=Cc3ccccc3)n2)n[nH]1 -32% [at 116 µM, percent change from vehicle, -100% = no light]
CCOC(=O)c1[nH]c(C)c(CCC(=O)Nc2cc(C)ccc2OC)c1C -12.3%
CCN1C(=O)c2ccccc2S(=O)c2ccc(C(=O)N3CCN(c4cc(Cl)ccc4C)CC3)cc21 (stereo unspecified) -46%
Cc1ccccc1CN1CCC(CNC(=O)c2c(C)oc3ncnc(N4CCCCC4)c23)CC1 -5.55%
CCOc1ccc(CCNC(=O)C2=C(C)C(=O)OC23CCCCC3)cc1 -20.6%
CCC(Sc1nc(-c2ccccc2F)nc2c1Cc1c(CO)cnc(C)c1O2)C(=O)Nc1cc(C)ccc1C (stereo unspecified) -14.9%
Fc1ccc(-c2noc3ncnc(NCc4ccc(Cl)cc4)c23)cc1 -44.8%
O=C(CCn1c(=O)c2cccn2c2cccnc21)NCc1ccc(F)cc1 -6.05%
CN(Cc1ccccc1)C(=O)c1ccc2c(c1)N(Cc1ccccc1Cl)C(=O)c1ccccc1S2 -38.8%
COc1ccc(Cl)cc1NC(=O)c1nn(-c2ccc(C)cc2)c(=O)n(C)c1=O -8.32%
CCOC(=O)c1c(C)[nH]c(C)c1S(=O)(=O)N1CCCC(C(=O)N2CCN(c3cccc(C)c3C)CC2)C1 (stereo unspecified) -22.8%
Cc1cccc(CNC(=O)CS(=O)(=O)c2cccc3nsnc23)c1 -14%
